These results are taken from ChEMBL document CHEMBL4888484, “Replenishing the malaria drug discovery pipeline: Screening and hit evaluation of the MMV Hit Generation Library 1 (HGL1) against asexual blood stage Plasmodium falciparum ,using a nano luciferase reporter read-out” (2022).

Out of some 150,000 compounds screened, about 540 (0.36%) showed an effect of 50% or more. This is one part of the list.

The experiment relates to Plasmodium falciparum. Description: Primary screen in NF54 nanoGlo assay, in single point, at 2uM, 72h; a lower Z score goes with more inhibition. The class given is functional, Erythrocyte. Particulars: timepoint 72 hour.
Take `CCN=C(NCc1ccn(C(C)C)n1)NC1CC1C` (stereo unspecified): the “% Inhibition” value is reported as -2% and the Z score amounted to 0.28.
For `CC(C)n1c(=O)c2nscc2n(CC(=O)Nc2ccc(Cl)cc2)c1=O` the same measures were -11% and 1.34.
For `COc1cccc(-c2noc(Nc3ccc4c(c3)OCO4)n2)c1` the same measures were -26% and 2.27.
The like results for `CO[C@H]1[C@H](NC(=O)c2c(F)ccc(C)c2F)c2ccccc2C12CCNCC2` were, in that order, -16% and 2.78.
For `CCN(C(=O)c1ccc(S(=O)(=O)N2CCOCC2)cc1)c1cccc(C)c1`, the “% Inhibition” value was -5% and the Z score is reported as 0.73.
The like results for `c1ccn2c(CCCNc3ncnc4oncc34)nnc2c1` were, in that order, -2% and 0.26.
The like results for `O=S1(=O)C[C@H](Nc2nc(C3CCCC3)nc3c2CNC3)[C@@H](O)C1` were, in that order, -6% and 0.96.
For `O=C(Cc1cn(-c2ccccc2)nc1-c1ccc(Cl)cc1)NCc1ccco1`, the “% Inhibition” value is -3% and the Z score is 0.36.
For `Cc1cnc(N(C)C/C=C/c2ccccc2)nc1-c1cnn(C)c1` the same measures were -12% and 1.7.
On to `CN(C)c1noc([C@H]2CCCN(c3cc(=O)n4ccccc4n3)C2)n1`, for which the “% Inhibition” value is on record as -14% and the Z score was 1.77.
For the compound `C=CCNC(=O)C(C)(C)Nc1ccc(C)cc1`, the “% Inhibition” value is reported as -7% and the Z score is reported as 1.44.
The like results for `COc1ccccc1N1CCN(C(=O)[C@H]2CCCN(c3ncnc4c3nc3n4CCCCC3)C2)CC1` were, in that order, -4% and 0.64.
In the case of `COCc1cc(CN(C)C(=O)c2n[nH]c3c2CCCC3)n[nH]1`, the “% Inhibition” value stood at 1% and the Z score was -0.16.
With `COc1ccc(C(=O)N2CCCC[C@@H]2CCN2CCCCC2)cc1Cl`, the “% Inhibition” value is 1% and the Z score is -0.08.
For `NC(=O)c1cnccc1N1CCC[C@H](c2nc(-c3ccccc3)c[nH]2)C1`, the “% Inhibition” value is given as 12% and the Z score was -1.54.
On to `Cc1nc(-c2cccc3ccccc23)ccc1C(=O)O`, for which the “% Inhibition” value is given as -15% and the Z score turned out to be 1.72.
As to `Fc1ccc(C2(c3nc([C@H]4CCOC4)no3)CCC2)cc1`, the “% Inhibition” value was -11% and the Z score is recorded as 1.04.
For `Cc1cc(NC(=O)c2ccc(-n3cncn3)nn2)on1`, the “% Inhibition” value was -4% and the Z score was 0.86.
Take `Cc1cc(C)cc(OCC(=O)NCCCNC(=O)COc2cc(C)cc(C)c2)c1`: the “% Inhibition” value turned out to be 5% and the Z score was -0.65.
The like results for `Cc1cc(CS(=O)(=O)[C@@H](C)C(=O)Nc2cc(C)on2)on1` were, in that order, -6% and 1.07.
Consider `C[C@H]1COc2c(N3CCN(C)CC3)c(F)cc3c(=O)c(C(=O)Nc4cccc5ncccc45)cn1c23`, for which the “% Inhibition” value is 3% and the Z score is reported as -0.33.
With `COc1ccc(CNC(=O)c2cc3c(n2C)CCN(Cc2ccccc2)C3)cc1OC`, the “% Inhibition” value is on record as -7% and the Z score is 1.12.
The like results for `CCC[C@H](C)c1cc(NC(=O)c2cc(C)on2)[nH]n1` were, in that order, -18% and 3.43.
For `CO[C@@H](C)C(=O)NCc1ccc(Cl)cn1`, the “% Inhibition” value stood at 1% and the Z score is -0.1.
For `Cc1cnc(C(=O)N2CCOc3ncccc3C2)c(C)c1`, the “% Inhibition” value is given as -1% and the Z score was 0.26.
The like results for `Cc1cc(C2(NC(=O)Nc3ccc4cnccc4c3)CCOCC2)on1` were, in that order, 4% and -0.63.
For `Cc1ccccc1[C@@H](C)CC(=O)NC1CCS(=O)(=O)CC1` the same measures were -4% and 0.7.
Turning to `CCc1noc([C@H](C)NC(=O)c2nn(C)cc2Cl)n1`, the “% Inhibition” value is -3% and the Z score was 0.52.
Consider `CNC(=O)[C@H](NC(=O)Nc1cc(C)nn1C)c1ccc(F)c(F)c1`, for which the “% Inhibition” value is 17% and the Z score is -2.21.
For `Cc1nnc(-c2cccc(NC(=O)NCCN3CCNC3=O)c2)s1` the same measures were -18% and 1.74.
For the compound `C[C@H](NC(=O)c1sccc1S(=O)(=O)N1CCCC1)c1ccccc1`, the “% Inhibition” value is 6% and the Z score is on record as -0.69.
For `COc1cccc(C(=O)N[C@]2(C(F)(F)F)C(=O)N(C3CCCCC3)C(C)=C2C(C)=O)c1` the same measures were -10% and 1.19.
For `CN(CCn1cccn1)C(=O)c1ccc2c(c1O)CCCC2`, the “% Inhibition” value is -10% and the Z score is listed as 1.92.
The like results for `O=C(NCc1ccccc1Br)c1cnn2c3c(cnc12)CCCCC3` were, in that order, -8% and 1.17.
The like results for `CC(C)C[C@H](N)C(=O)N1CC2CCCCC2C1` (stereo partly specified) were, in that order, 41% and -5.55.
Take `CC1(C)CN(C(=O)NCCC2CS(=O)(=O)C2)CCc2ccccc21`: the “% Inhibition” value is -4% and the Z score was 0.57.
For `Cc1noc(C)c1CN(C)C(=O)Nc1cccc2nn(C)nc12` the same measures were 9% and -1.52.
The like results for `Cc1noc(C)c1CN1CC[C@H](NC(=O)c2n[nH]c3ccccc23)[C@@H](O)C1` were, in that order, -1% and 0.28.
With `CN(C)c1nc(N2CCN(c3ccc(F)cc3)CC2)nc2c1CN(S(=O)(=O)c1ccccc1)CC2`, the “% Inhibition” value was 12% and the Z score was -1.13.
Regarding `COC(C)(C)C(=O)Nc1cc(CO)c(C)cc1C`, the “% Inhibition” value is reported as -3% and the Z score was found to be 0.44.
The like results for `Cn1cc2c(n1)CCC[C@H]2C(=O)Nc1nccc2ccncc12` were, in that order, 0% and 0.
For `CCc1ccccc1CNC(=O)Nc1ccn(CCOC)n1` the same measures were -7% and 0.68.
For the compound `O=C(C1CC=CC1)N1CCC2CCCCC21` (stereo unspecified), the “% Inhibition” value is -2% and the Z score was determined as 0.17.
